From PubChem BioAssay AID504466 (National Center for Advancing Translational Sciences (NCATS), 2011)
Among all 330,000 compounds or so, about 4,200 (1.3%) were called active. Inconclusive means that the source gave no clear call. Such entries were picked first, then a sample of the others. Calls come from the whole dose curve; as a rule, active = well fitted activation curve with a large enough effect; inconclusive = small, poorly fitted or top-dose-only effect; inactive = no such curve, though single readings can be large or run the other way. Where the call is inconclusive, the potency comes from a doubtful curve fit.

assay: qHTS screen for small molecules that induce genotoxicity in human embryonic kidney (HEK293T) cells expressing luciferase-tagged ELG1; conditions: HEK293T ELG1-luciferase reporter, luminescence, 16 h; series mostly up to 46 µM; activity change, positive = activation: at the top concentration; note: nearly all actives have a fitted effect of over 60% in size; for activity change, positive = activation: % of control where 0% means no effect
Outline: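 Cells (2,000/well) expressing the ELG1-luciferase fusion are dosed by pin tool and kept 16 hr at 37 °C, 5% CO2. Signal comes from ONE-Glo luciferase reagent after 30 min at room temperature.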
Potency is the fitted concentration of half-maximal effect; tags give direction and shape of the fitted curve.

Row | SMILES | activity change, positive = activation | Potency
1 | C=CCOC(=O)N1CCN(c2cccc(C(F)(F)F)c2)CC1 | inactive: -1.41% | 
2 | Cc1ccc(C(=O)C(C)OC(=O)C2CCN(c3ccc(C(F)(F)F)cn3)CC2)cc1C (configuration not stated) | inactive: 6.4% | 
3 | Cc1ccc(C(=O)NCCc2ccc(F)cc2)s1 |  | inconclusive: 2.31 µM [activator, partial curve]
4 | Cc1cc(NC(=O)CS(=O)(=O)c2cn(Cc3ccccc3Cl)c3ccccc23)no1 |  | inconclusive: 20.6 µM [activator, single point]
5 | COc1cc2nc(SCC(N)=O)n(CCC3=CCCCC3)c(=O)c2cc1OC |  | inconclusive: 29.1 µM [activator, partial curve, poor fit]
6 | CC1CCN(C(=O)COc2cccc3c2CCN(Cc2ccccc2)C3=O)CC1 |  | inconclusive: 6.51 µM [activator, single point]
7 | CC(C)c1nc(SCC(=O)c2c[nH]c3ccccc23)n[nH]1 | inactive: -6.88% | 
8 | Cc1ccc(S(=O)(=O)N2CCN(c3ccccc3)CC2)cc1C(N)=O | inactive: -4.22% | 
9 | O=C(NCC1CC1)c1ccc2c3n(nc2c1)-c1ccccc1CO3 |  | inconclusive: 1.3 µM [activator, partial curve]
10 | CCCCOc1ccc(-c2cc(C(=O)NNC(=S)NCC)c3ccccc3n2)cc1 |  | inconclusive: 0.158 µM [activator, full curve, poor fit]
11 | CC(C)(C)c1ccc(S(=O)(=O)CCc2ccccn2)cc1 |  | active: 20.6 µM
12 | CCOC(=O)C1CCN(C(=O)C2CCN(c3nnc(-n4cccc4)s3)CC2)CC1 | inactive: 0.659% [at 9.26 µM] | 
13 | Cc1nnc2n1N=C(c1ccc(F)cc1F)CS2 | inactive: 7.04% | 
14 | CCN(CC)c1ccc2cc(-c3nnc(-c4ccncc4)o3)c(=O)oc2c1 |  | inconclusive: 3.66 µM [activator, full curve]
15 | Cc1ccc2c(c1)Sc1c(ccc3ccccc13)N2 |  | inconclusive: 9.2 µM [activator, partial curve, poor fit]
16 | Cc1ccsc1C(=O)N1CCc2ccccc2C1 |  | inconclusive: 23.1 µM [activator, partial curve, poor fit]
17 | COc1cccc(CNC(=O)c2ccc(C(=O)NCc3cccc(OC)c3)cc2)c1 |  | inconclusive: 25.9 µM [activator, partial curve, poor fit]
18 | CN1CC(c2ccc(C#N)cc2)C2(COc3ccccc3C2=O)C12C(=O)Nc1ccccc12 (configuration not stated) | inactive: -7.12% | 
19 | O=C(Cc1ccccc1F)Nc1ccc(SC(F)F)cc1 |  | inconclusive: 16.4 µM [activator, partial curve]
20 | CCc1nc2ccc(C(=O)N3CCN(CC)CC3)cc2nc1CC | inactive: 0.742% | 
21 | O=C(Nc1ncccc1Cl)C1COc2ccccc2O1 (configuration not stated) |  | inconclusive: 3.55 µM [activator, partial curve, poor fit]
22 | N#Cc1cnc(Nc2ccc(F)cc2)nc1N |  | inconclusive: 9.2 µM [activator, partial curve, poor fit]
23 | Cc1ccc(C)c(NC(=O)c2cc(-c3ccccc3O)n[nH]2)c1 | inactive: 10.8% | 
24 | CC1(C)O[C@@H]2CC3C4C[C@H](F)C5=CC(=O)C=CC5(C)C4C(O)CC3(C)[C@]2(C(=O)CO)O1 (some centres not stated) |  | inconclusive: 1.3 µM [activator, partial curve, poor fit]

Row | SMILES | activity change, positive = activation | Potency
25 | CCOc1ccc(N=Nc2c(C)noc2C)cc1 | inactive: 8.29% | 
26 | COc1ccc(-c2ncc3ccccn23)cc1OC |  | inconclusive: 18.4 µM [activator, partial curve, poor fit]
27 | COc1ccccc1NC(=O)Nc1nc(CC(=O)Nc2ccc(N(C)C)cc2)cs1 |  | inconclusive: 20.6 µM [activator, single point]
28 | COc1ccc2c(c1)CC/C2=N\OC(=O)c1ccccc1C |  | inconclusive: 3.26 µM [activator, full curve, poor fit]
29 | CC(=O)Nc1ccnn1C1CCN(C(=O)c2cccc(C)c2C)CC1 | inactive: 0.377% | 
30 | Cc1ccc(C(=O)Sc2cccccc2=O)cc1 |  | active: 6.51 µM
31 | COc1ccc(-c2nc(-c3ccc(NC(=O)c4ccc(Br)o4)cc3)no2)cc1OC |  | inconclusive: 25.9 µM [activator, partial curve, poor fit]
32 | CCOC(=O)N1CCN(C(=O)CCSc2ccccc2)CC1 |  | active: 9.2 µM
33 | O=C(NCCCN1CCOCC1)c1sc2cc(F)ccc2c1Cl | inactive: 14.7% | 
34 | Cc1cc(C(=O)COC(=O)c2cccc(NS(C)(=O)=O)c2)c(C)n1CC1CCCO1 (configuration not stated) |  | inconclusive: 0.73 µM [activator, partial curve, poor fit]
35 | COc1ccccc1Nc1nc(N)nc(CSC(=S)N2CCOCC2)n1 |  | inconclusive: 18.3 µM [activator, partial curve, poor fit]
36 | Cc1ccc(NC(=O)C(=O)c2ccc(C)cc2)cc1 |  | active: 4.61 µM
37 | CCOc1ccc(NS(=O)(=O)c2ccc(C(=O)N3CCCC(C)C3)cc2)cc1 (configuration not stated) |  | inconclusive: 29.1 µM [activator, single point]
38 | Cc1ccc(/C=C/C(=O)O)cc1S(=O)(=O)NC1CCS(=O)(=O)C1 (configuration not stated) | inactive: -1.72% | 
39 | COC(=O)Nc1ccc(S(=O)(=O)N2CCCc3ccccc32)cc1 | inactive: -1.82% | 
40 | CCOC(=O)c1sc(=N)n(-c2ccc(OC)cc2)c1C |  | inconclusive: 20.6 µM [activator, partial curve, poor fit]
41 | CN1CCN(c2ccc(NC(=O)Cc3ccccc3)cc2)CC1 |  | active: 11.6 µM
42 | COc1ccc(N2CCN(C(=S)NCc3ccc(C)cc3)CC2)cc1 |  | inconclusive: 32.6 µM [activator, partial curve, poor fit]
43 | C=C(C)COc1ccc2c(C)c(CC(=O)OC)c(=O)oc2c1C |  | active: 9.2 µM
44 | Cc1cc(O)c(C2=Nc3ccccc3SC(c3ccc(Cl)cc3)C2)c(=O)o1 (configuration not stated) |  | active: 7.31 µM
45 | C[C@H](CO)N1C[C@H](C)[C@@H](CN(C)Cc2ccccc2)Oc2ccc(NC(=O)CCCCCC(=O)Nc3ccccc3N)cc2C1=O | inactive: 17.2% | 
46 | Cc1cc(=O)oc2cc(Oc3ccc([N+](=O)[O-])cc3[N+](=O)[O-])ccc12 |  | inconclusive: 23.1 µM [activator, partial curve, poor fit]
47 | CCc1nc2sc3c(c2c(=O)o1)CCCC3 |  | inconclusive: 29.1 µM [activator, single point]
